Results reported in PubChem BioAssay (NCATS).
Several values for one entry are separate records, joined by “and”; a condition that tells them apart may be missing. Equal values may be shown once. This list was built around the results that the source calls inconclusive (neither active nor inactive); the mix of calls is not that of the screen. Potencies beside an inconclusive call are fits to weak or partial responses and may not hold up. Activity calls are given as the source filed them. The call rests on the fitted dose curve; in most records, active means well fitted cell-killing curve with a large enough effect; inconclusive means small, poorly fitted or top-dose-only effect, or effect the other way; inactive means no such curve, though single readings can be large or run the other way.

Key:
[1] = Viability qHTS for spleen associated tyrosine kinase inhibitor (SYKi) naive MV4-11 cells (AID 1963823); conditions: MV4-11 AML viability, CellTiter-Glo luminescence, 72 h; viability (% of control): at 45 µM (top of the series); further: nearly all actives have a fitted effect of over 40% in size
Method in brief: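 Luminescence from CellTiter-Glo, developed 10 min at room temperature, gave viability of MV4-11 cells never exposed to SYK inhibitor. Cells (500/well) had been incubated with compounds for 72 hr under standard culture conditions.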

[2] = Viability qHTS for spleen associated tyrosine kinase inhibitor (SYKi) drug resistant MV4-11 cells (AID 1963824); further: nearly all actives have a fitted effect of over 35% in size
Method in brief: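 CellTiter-Glo luminescence, read 10 min after reagent addition, reports viability after a 72 hr compound exposure. Cells are an MV4-11 line made resistant to SYK inhibition, seeded at 500 per well onto compound-containing plates.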
Potency means the concentration at half of the fitted maximal effect; tags describe the fitted curve by direction and shape.

Structure (SMILES) | Potency [1] | Potency [2] | viability (% of control) [1] | viability, % of control [2]
CCc1ccc(/C=C2/SC(=S)NC2=O)cc1 | inconclusive: 33.2 µM [cytotoxic, single point] | inconclusive: 23.5 µM [cytotoxic, partial curve] |  | 
C=C[C@H]1CN2CCC1C[C@@H]2C(O)c1ccnc2ccc(OC)cc12 (stereo partly drawn) | inconclusive: 18.6 µM [cytotoxic, partial curve] | active: 14.8 µM |  | 
C[C@H](CS)C(=O)N1CCC[C@H]1C(=O)O | inconclusive: 0.0075 µM [rising, full curve, poor fit] | inconclusive: 0.0075 µM [rising, full curve, poor fit] |  | 
Cc1[nH]c2ccccc2c1CCNC(=O)c1cccs1 | inconclusive: 23.1 µM [cytotoxic, single point] | inconclusive: 23.1 µM [cytotoxic, single point] |  | 
Cc1ccccc1N1CCN(S(=O)(=O)C[C@]23CC[C@H](C[C@@H]2NC(=O)[C@@H](N)CCS(C)(=O)=O)C3(C)C)CC1 | inactive | inconclusive: 25.9 µM [cytotoxic, single point] |  | 
CN(C)C/C=C(/c1ccc(Br)cc1)c1cccnc1 | inactive | inconclusive: 16.8 µM [cytotoxic, single point] |  | 
CC(C)(C)C(=O)C(Oc1ccc(Cl)cc1)n1ccnc1 (stereo not drawn) | inconclusive: 26.6 µM [cytotoxic, single point] and inconclusive: 20.6 µM [cytotoxic, partial curve] | inconclusive: 18.8 µM [cytotoxic, single point] |  | 
CCCC(C(=O)O)c1c(C)nc2ccc(Cl)cc2c1-c1ccccc1 (stereo not drawn) | inconclusive: 18.4 µM [cytotoxic, partial curve, poor fit] | inconclusive: 14.6 µM [cytotoxic, partial curve, poor fit] |  | 
N#Cc1cccc(CN2CCC(N(Cc3cccnc3)C(=O)Nc3ccccc3-c3ccccc3)CC2)c1 | inconclusive: 18.4 µM [cytotoxic, partial curve] | inconclusive: 25.9 µM [cytotoxic, single point] |  | 
CC(C)c1nnc(-c2ccc(-c3ccccc3)nc2)n1-c1cccc2nonc12 | inconclusive: 10.3 µM [cytotoxic, partial curve] | inconclusive: 10.3 µM [cytotoxic, partial curve] |  | 
CCC(C)C(C(=O)O)N1Cc2c(OCC=C(C)C)c(C)c(OC)c(C(=O)O)c2C1=O (stereo not drawn) | inactive | inconclusive: 0.02 µM [cytotoxic, full curve, poor fit] |  | 
CCN(CC)C(=O)c1ccc(Nc2nc(OCC3CCCCC3)c3[nH]cnc3n2)cc1 | active: 1.03 µM | active: 1.46 µM |  | 
COC(=O)c1ccnc(-c2cc(C(=O)NCCc3ccccc3)ccn2)c1 | inconclusive: 0.0231 µM [rising, full curve, poor fit] | inactive |  | 
O=C(NC[C@H](O)CN1CCc2ccccc2C1)c1ccnc(NC2CCC2)c1 | inconclusive: 9.2 µM [cytotoxic, partial curve] and inconclusive: 1 nM | inconclusive: 2.59 µM [cytotoxic, partial curve, poor fit] |  | 
C[C@@H]1CCC2C(C)(C)[C@H](O)[C@H](O)C[C@]2(C)[C@@]12Cc1c(O)cc3c(c1O2)CN(CCCC(=O)O)C3=O (stereo partly drawn) | inactive | inconclusive: 0.0893 µM [cytotoxic, full curve, poor fit] |  | 
COc1cc(-c2cn(C3CCc4c(F)cccc4N(CC(F)(F)F)C3=O)nn2)ccc1-n1cnc(C)c1 (stereo not drawn) | inconclusive: 23.1 µM [cytotoxic, single point] | inconclusive: 13 µM [cytotoxic, partial curve] |  | 
CN1CCc2cc3c(cc2C(=O)Cc2cc4c(cc2C1)OCO4)OCO3 | inconclusive: 10.1 µM [cytotoxic, partial curve] | inconclusive: 11.4 µM [cytotoxic, partial curve] |  | 
Cc1c(NC(=O)c2cc(C(N)=O)nc3cc(F)ccc23)c(C(F)(F)F)nn1Cc1ccc(C(C)(C)C)cc1 | active: 20.9 µM | active: 16.6 µM |  | 
C=C1C(=O)OC2/C=C(\C)CC/C=C(\C(=O)O)CC/C=C(\C)CCC12 (stereo not drawn) | inconclusive: 16.1 µM [cytotoxic, single point] | inconclusive: 14.3 µM [cytotoxic, partial curve, poor fit] |  | 
COC1=CC(=O)C[C@@H](C)[C@]12Oc1cc(OC)cc(OC)c1C2=O | inactive | inactive |  | 
CO[C@@]12CC3[C@@H]([C@@H](O)[C@@H](OC(C)=O)C4[C@](C)(COC(C)=O)CCC[C@]34C)[C@@H](C)C1=CC(=O)O2 (stereo partly drawn) | inconclusive: 11.2 µM [cytotoxic, single point] | inconclusive: 0.126 µM [cytotoxic, partial curve, poor fit] |  | 
CCCCCCCCCCCCC/C=C/[C@@H](O)[C@H](CO)N(C)C |  |  | inactive: 70.8% [at 4.97 µM] | inactive: 82.6% [at 4.97 µM]

Structure (SMILES) | Potency [1] | Potency [2] | viability (% of control) [1] | viability, % of control [2]
CC(=O)/C=C/C1(O)C(C)(C)CC(O)CC1(C)O (stereo not drawn) | inactive | inconclusive: 25.9 µM [cytotoxic, single point] |  | 
COc1cc(C/C(=C/NC(C)=O)N(CC(=O)Cc2ccccc2)C(C)=O)cc2c1OCO2 | inconclusive: 11.2 µM [cytotoxic, single point] | inconclusive: 10 µM [cytotoxic, partial curve, poor fit] |  | 
COc1ccccc1N1CCN(c2ncnc3n[nH]c(Br)c23)CC1 | inconclusive: 7.31 µM [cytotoxic, partial curve] | inconclusive: 7.31 µM [cytotoxic, partial curve] |  | 
COc1c(/C=C/C(C)(C)O)ccc2c1C(=O)OCc1cc(C)cc(O)c1O2 | inconclusive: 7.18 µM [cytotoxic, partial curve] | inconclusive: 3.6 µM [cytotoxic, partial curve] |  | 
COC(O)(CC(C)C)C1Oc2cc(C)[nH]c(=O)c2O1 (stereo not drawn) | inactive | inactive |  | 
CC(NCCCc1cccc(C(F)(F)F)c1)c1cccc2ccccc12 (stereo not drawn) | inconclusive: 7.96 µM [cytotoxic, single point] | inconclusive: 11.2 µM [cytotoxic, single point] |  | 
Cc1cc(CO)c(O)c(C(=O)CC2CC(=O)NC(=O)C2)c1 | inactive | inconclusive: 1.84 µM [cytotoxic, full curve, poor fit] |  | 
COC1C=C(C)C(O)(CO)C2(C)CCCC(C)(C)C12 (stereo not drawn) | inconclusive: 5.8 µM [cytotoxic, full curve, poor fit] | inactive |  | 
CC1(CO)CC(O)C2(C)CCC3(C)C(=CCC4C5(C=O)CCC(OC6OC(C(=O)O)C(O)C(O)C6OC6OC(C(=O)O)C(O)C(O)C6O)C(C)(C)C5CCC43C)C2C1 (stereo not drawn) |  |  | inactive: 87.7% [at 9.25 µM] | inactive: 98.3% [at 9.25 µM]
COc1ccc2c(c1)C[C@H](C(=O)Nc1ccc(-c3cn[nH]c3)cc1OCCN(C)C)CO2 | active: 0.651 µM | inconclusive: 11.6 µM [cytotoxic, partial curve] |  | 
C[C@@H]1O[C@@H](O[C@H]2[C@@H]3C=CO[C@@H](O[C@@H]4O[C@H](CO)[C@@H](O)[C@H](O)[C@H]4O)[C@@H]3[C@@]3(CO)O[C@@H]23)[C@H](OC(=O)/C=C/c2ccccc2)[C@H](O)[C@H]1O | inactive | inactive |  | 
CCNC1(C(N)=O)CN(c2nc(C)nc3c(-c4ccc(Cl)cc4)c(-c4ccccc4Cl)nn23)C1 | inconclusive: 23.1 µM [cytotoxic, partial curve] | active: 16.4 µM |  | 
Cc1ccc(C)c(OCCn2cc(C(=O)O)c3ccccc32)c1 | inconclusive: 29.1 µM [cytotoxic, single point] | inconclusive: 13 µM [cytotoxic, partial curve, poor fit] |  | 
Cc1cc(C(=O)Nc2nc3cccc(Cl)c3n2C2CCCCN(C(=O)/C=C/CN(C)C)C2)ccn1 (stereo not drawn) | active: 5.17 µM | active: 8.2 µM |  | 
O=C(O)[C@H](Cc1ccccc1)Oc1ccc(-c2ccccc2)cc1 | inactive | inconclusive: 20.6 µM [cytotoxic, single point] |  | 
COc1ccc(C#Cc2ccc(C(=O)N3CCC[C@@H](CO)C3)cc2)cc1 | inconclusive: 6.51 µM [cytotoxic, partial curve] | inconclusive: 7.31 µM [cytotoxic, partial curve] |  | 
COc1ccc(C[C@H](C)NC[C@@H](O)c2ccc(O)c(NC=O)c2)cc1 | inactive | inactive |  | 
C=C(C)C(=O)O[C@H]1CC2=CC(C/C(C)=C\[C@H]3OC(=O)C(=C)[C@H]13)OC2=O (stereo partly drawn) | inconclusive: 3.6 µM [cytotoxic, full curve, poor fit] | inconclusive: 3.6 µM [cytotoxic, full curve, poor fit] |  | 
OC[C@H]1O[C@@H](OC/C=C/c2ccc(O)cc2)[C@H](O)[C@@H](O)[C@@H]1O | inactive | inactive |  | 
C=C(C)C(=O)O[C@H]1[C@H]2C(=C)C(=O)O[C@@H]2C[C@@H](C)/C=C\C(=O)[C@](C)(O)[C@@H]1OC(C)=O | inactive | inactive |  | 
CCN(CC)CCNC(=O)c1cc(Br)c(N)cc1OC | inconclusive: 13.3 µM [cytotoxic, partial curve, poor fit] | inconclusive: 2.11 µM [cytotoxic, partial curve, poor fit] |  | 
COc1ccc(S(=O)(=O)n2cnc3cc(C)c(C)cc32)cc1 | inconclusive: 20.6 µM [cytotoxic, partial curve] | inconclusive: 16.4 µM [cytotoxic, partial curve] |  | 
